# The list shows a part of the results.
# B1: TES70 (Toxocara canis), Q9XYV5 (protein)
# chain: MISVVLVAIALQISGSYAGACNSINDCGLFETCVNNMCVPDNMGCPMPCQAGQVCVPPNCVAAPAPQPVTTTTAAATTTTSARGRCNANAQCGAFEVCVNGMCQPNNAGCNPPCAANQVCVAPNCVPAPIPPPAQSTTTAPATTRAPPSCPPSWSPFSGHCYYVAVGSFLFNQASDWCTQTNSRPVWFDQSNVGTFGAELYFINVLAASRGVQTYWLGLNRQFGQWVWTNGSPLIFSNWRGSEPDGCCGGNVTCALVNYANPFGQWDDAGCGNIWRNPQGFICKKPLA
# Experiments:
# Assay in all cases: glycan array binding signal (z-score within array); higher = stronger binding
# Conditions in all cases: glycan notation: IUPAC condensed, linker removed
# Kdn(a2-3)Gal(b1-3)GlcNAc = target: Kdn(a2-3)Gal(b1-3)GlcNAc
# In short: (§1)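 Negative Z-scores can be read as non-binding. The Z-score is calculated within each array and then averaged across arrays of one protein sequence at different concentrations or buffers and across linkers. Arrays, 3228 in all, were curated from the Consortium for Functional Glycomics database and kept only where the protein sequence was available.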
# Kdn(a2-3)Gal(b1-4)GlcNAc = target: Kdn(a2-3)Gal(b1-4)GlcNAc
# In short: as §1
# [1] = target: Man(a1-2)Man(a1-2)Man(a1-3)Man
# In short: as §1
# [2] = target: Man(a1-2)Man(a1-2)Man(a1-6)[Man(a1-3)]Man
# In short: as §1
# Man(a1-2)Man(a1-3)Man = target: Man(a1-2)Man(a1-3)Man
# In short: as §1
# [3] = target: Man(a1-2)Man(a1-3)[Man(a1-2)Man(a1-6)]Man
# In short: as §1
# [4] = target: Man(a1-2)Man(a1-3)[Man(a1-2)Man(a1-6)]Man(a1-6)[Man(a1-2)Man(a1-2)Man(a1-3)]Man(b1-4)GlcNAc(b1-4)GlcNAc
# In short: as §1
# [5] = target: Man(a1-2)Man(a1-3)[Man(a1-2)Man(a1-6)]Man(a1-6)[Man(a1-3)[Man(a1-6)]Man(a1-6)]Man(b1-4)GlcNAc(b1-4)GlcNAc
# In short: as §1
# [6] = target: Man(a1-2)Man(a1-3)[Man(a1-6)]Man(a1-6)[Man(a1-2)Man(a1-3)]Man(b1-4)GlcNAc(b1-4)GlcNAc
# In short: as §1
# [7] = target: Man(a1-2)Man(a1-6)[Man(a1-3)]Man(a1-6)[Man(a1-2)Man(a1-2)Man(a1-3)]Man(b1-4)GlcNAc(b1-4)GlcNAc
# In short: as §1
# Man(a1-3)[Man(a1-6)]Man = target: Man(a1-3)[Man(a1-6)]Man
# In short: as §1
# [8] = target: Man(a1-3)[Man(a1-6)]Man(a1-6)[Man(a1-3)]Man(b1-4)GlcNAc(b1-4)GlcNAc
# In short: as §1
# Neu5Ac(a2-3)Gal = target: Neu5Ac(a2-3)Gal
# In short: as §1
# [9] = target: Neu5Ac(a2-3)Gal(b1-3)GalNAc
# In short: as §1
# [10] = target: Neu5Ac(a2-3)Gal(b1-3)GalNAc6S
# In short: as §1
# [11] = target: Neu5Ac(a2-3)Gal(b1-3)GlcNAc
# In short: as §1
# [12] = target: Neu5Ac(a2-3)Gal(b1-3)[Fuc(a1-4)]GlcNAc
# In short: as §1
# [13] = target: Neu5Ac(a2-3)Gal(b1-3)[Neu5Ac(a2-3)Gal(b1-4)]GlcNAc
# In short: as §1
# [14] = target: Neu5Ac(a2-3)Gal(b1-3)[Neu5Ac(a2-6)]GalNAc
# In short: as §1
# Neu5Ac(a2-3)Gal(b1-4)Glc = target: Neu5Ac(a2-3)Gal(b1-4)Glc
# In short: as §1
# [15] = target: Neu5Ac(a2-3)Gal(b1-4)GlcNAc
# In short: as §1
# [16] = target: Neu5Ac(a2-3)Gal(b1-4)GlcNAc(b1-3)Gal(b1-4)GlcNAc
# In short: as §1
# [17] = target: Neu5Ac(a2-3)Gal(b1-4)GlcNAc(b1-3)Gal(b1-4)GlcNAc(b1-3)Gal(b1-4)GlcNAc
# In short: as §1
# [18] = target: Neu5Ac(a2-3)Gal(b1-4)GlcNAc6S
# In short: as §1
# [19] = target: Neu5Ac(a2-3)Gal(b1-4)[Fuc(a1-3)]GlcNAc
# In short: as §1
# [20] = target: Neu5Ac(a2-3)Gal(b1-4)[Fuc(a1-3)]GlcNAc(b1-3)Gal
# In short: as §1
# [21] = target: Neu5Ac(a2-3)Gal(b1-4)[Fuc(a1-3)]GlcNAc(b1-3)Gal(b1-4)GlcNAc
# In short: as §1
# [22] = target: Neu5Ac(a2-3)Gal(b1-4)[Fuc(a1-3)]GlcNAc(b1-3)Gal(b1-4)[Fuc(a1-3)]GlcNAc(b1-3)Gal(b1-4)[Fuc(a1-3)]GlcNAc
# In short: as §1
# [23] = target: Neu5Ac(a2-3)Gal(b1-4)[Fuc(a1-3)]GlcNAc6S
# In short: as §1
# [24] = target: Neu5Ac(a2-3)Gal6S(b1-4)GlcNAc
# In short: as §1
# Neu5Ac(a2-3)GalNAc = target: Neu5Ac(a2-3)GalNAc
# In short: as §1
# [25] = target: Neu5Ac(a2-3)[GalNAc(b1-4)]Gal(b1-4)Glc
# In short: as §1
# [26] = target: Neu5Ac(a2-3)[GalNAc(b1-4)]Gal(b1-4)GlcNAc
# In short: as §1
# [27] = target: Neu5Ac(a2-3)[Neu5Ac(a2-6)]GalNAc
# In short: as §1
# Neu5Ac(a2-6)Gal = target: Neu5Ac(a2-6)Gal
# In short: as §1
# Neu5Ac(a2-6)Gal(b1-4)Glc = target: Neu5Ac(a2-6)Gal(b1-4)Glc
# In short: as §1
# [28] = target: Neu5Ac(a2-6)Gal(b1-4)GlcNAc
# In short: as §1
# [29] = target: Neu5Ac(a2-6)Gal(b1-4)GlcNAc(b1-3)Gal(b1-4)GlcNAc
# In short: as §1
# [30] = target: Neu5Ac(a2-6)Gal(b1-4)GlcNAc(b1-3)Gal(b1-4)[Fuc(a1-3)]GlcNAc(b1-3)Gal(b1-4)[Fuc(a1-3)]GlcNAc
# In short: as §1
# [31] = target: Neu5Ac(a2-6)Gal(b1-4)GlcNAc6S
# In short: as §1
# Neu5Ac(a2-6)GalNAc = target: Neu5Ac(a2-6)GalNAc
# In short: as §1
# Neu5Ac(a2-8)Neu5Ac = target: Neu5Ac(a2-8)Neu5Ac
# In short: as §1
# [32] = target: Neu5Ac(a2-8)Neu5Ac(a2-3)Gal(b1-4)Glc
# In short: as §1
# [33] = target: Neu5Ac(a2-8)Neu5Ac(a2-3)[GalNAc(b1-4)]Gal(b1-4)Glc
# In short: as §1
# [34] = target: Neu5Ac(a2-8)Neu5Ac(a2-8)Neu5Ac
# In short: as §1
# [35] = target: Neu5Ac(a2-8)Neu5Ac(a2-8)Neu5Ac(a2-3)Gal(b1-4)Glc
# In short: as §1
# [36] = target: Neu5Ac(a2-8)Neu5Ac(a2-8)Neu5Ac(a2-3)[GalNAc(b1-4)]Gal(b1-4)Glc
# In short: as §1
# Neu5Ac(b1-6)GalNAc = target: Neu5Ac(b1-6)GalNAc
# In short: as §1
# [37] = target: Neu5Ac(b2-6)Gal(b1-4)GlcNAc
# In short: as §1
# [38] = target: Neu5Ac9Ac(a2-6)Gal(b1-4)GlcNAc
# In short: as §1
# [39] = target: Neu5Gc(a2-3)Gal(b1-3)GlcNAc
# In short: as §1
# [40] = target: Neu5Gc(a2-3)Gal(b1-3)[Fuc(a1-4)]GlcNAc
# In short: as §1
# Neu5Gc(a2-3)Gal(b1-4)Glc = target: Neu5Gc(a2-3)Gal(b1-4)Glc
# In short: as §1
# [41] = target: Neu5Gc(a2-3)Gal(b1-4)GlcNAc
# In short: as §1
# [42] = target: Neu5Gc(a2-3)Gal(b1-4)[Fuc(a1-3)]GlcNAc
# In short: as §1
# [43] = target: Neu5Gc(a2-6)Gal(b1-4)GlcNAc
# In short: as §1
# Neu5Gc(a2-6)GalNAc = target: Neu5Gc(a2-6)GalNAc
# In short: as §1
binder,measurement,setting,value
B1,glycan array binding signal (z-score),Kdn(a2-3)Gal(b1-3)GlcNAc,-0.171
same,glycan array binding signal (z-score),Kdn(a2-3)Gal(b1-4)GlcNAc,-0.044
same,glycan array binding signal (z-score),[1],-0.121
same,glycan array binding signal (z-score),[2],-0.17
same,glycan array binding signal (z-score),Man(a1-2)Man(a1-3)Man,-0.064
same,glycan array binding signal (z-score),[3],-0.129
same,glycan array binding signal (z-score),[4],-0.157
same,glycan array binding signal (z-score),[5],-0.12
same,glycan array binding signal (z-score),[6],-0.175
same,glycan array binding signal (z-score),[7],-0.137
same,glycan array binding signal (z-score),Man(a1-3)[Man(a1-6)]Man,-0.096
same,glycan array binding signal (z-score),[8],-0.136
same,glycan array binding signal (z-score),Neu5Ac(a2-3)Gal,-0.121
same,glycan array binding signal (z-score),[9],0.672
same,glycan array binding signal (z-score),[10],-0.145
same,glycan array binding signal (z-score),[11],-0.172
same,glycan array binding signal (z-score),[12],-0.149
same,glycan array binding signal (z-score),[13],-0.196
same,glycan array binding signal (z-score),[14],-0.065
same,glycan array binding signal (z-score),Neu5Ac(a2-3)Gal(b1-4)Glc,-0.144
same,glycan array binding signal (z-score),[15],-0.159
same,glycan array binding signal (z-score),[16],-0.152
same,glycan array binding signal (z-score),[17],-0.085
same,glycan array binding signal (z-score),[18],-0.168
same,glycan array binding signal (z-score),[19],-0.164
same,glycan array binding signal (z-score),[20],-0.112
same,glycan array binding signal (z-score),[21],-0.048
same,glycan array binding signal (z-score),[22],-0.165
same,glycan array binding signal (z-score),[23],-0.164
same,glycan array binding signal (z-score),[24],-0.176
same,glycan array binding signal (z-score),Neu5Ac(a2-3)GalNAc,-0.169
same,glycan array binding signal (z-score),[25],-0.101
same,glycan array binding signal (z-score),[26],-0.126
same,glycan array binding signal (z-score),[27],-0.193
same,glycan array binding signal (z-score),Neu5Ac(a2-6)Gal,-0.128
same,glycan array binding signal (z-score),Neu5Ac(a2-6)Gal(b1-4)Glc,-0.159
same,glycan array binding signal (z-score),[28],6.41
same,glycan array binding signal (z-score),[29],-0.121
same,glycan array binding signal (z-score),[30],-0.131
same,glycan array binding signal (z-score),[31],-0.124
same,glycan array binding signal (z-score),Neu5Ac(a2-6)GalNAc,-0.092
same,glycan array binding signal (z-score),Neu5Ac(a2-8)Neu5Ac,-0.171
same,glycan array binding signal (z-score),[32],-0.14
same,glycan array binding signal (z-score),[33],-0.165
same,glycan array binding signal (z-score),[34],-0.175
same,glycan array binding signal (z-score),[35],-0.122
same,glycan array binding signal (z-score),[36],-0.145
same,glycan array binding signal (z-score),Neu5Ac(b1-6)GalNAc,-0.111
same,glycan array binding signal (z-score),[37],-0.153
same,glycan array binding signal (z-score),[38],-0.172
same,glycan array binding signal (z-score),[39],-0.104
same,glycan array binding signal (z-score),[40],-0.155
same,glycan array binding signal (z-score),Neu5Gc(a2-3)Gal(b1-4)Glc,-0.17
same,glycan array binding signal (z-score),[41],-0.144
same,glycan array binding signal (z-score),[42],-0.14
same,glycan array binding signal (z-score),[43],-0.15
same,glycan array binding signal (z-score),Neu5Gc(a2-6)GalNAc,-0.127

# Reference: the supplement of paper PMC8728848
